The values below come from the supplement of paper PMC3334620.

Whole data set: some 33,000 sequences, median “E-score (-0.5 to 0.5)” near -0.035, cut for the highest 2% near 0.34. The list shows a part of the results.

This experiment has as its target T1, Mot3 (UniProt P54785).
T1 sequence: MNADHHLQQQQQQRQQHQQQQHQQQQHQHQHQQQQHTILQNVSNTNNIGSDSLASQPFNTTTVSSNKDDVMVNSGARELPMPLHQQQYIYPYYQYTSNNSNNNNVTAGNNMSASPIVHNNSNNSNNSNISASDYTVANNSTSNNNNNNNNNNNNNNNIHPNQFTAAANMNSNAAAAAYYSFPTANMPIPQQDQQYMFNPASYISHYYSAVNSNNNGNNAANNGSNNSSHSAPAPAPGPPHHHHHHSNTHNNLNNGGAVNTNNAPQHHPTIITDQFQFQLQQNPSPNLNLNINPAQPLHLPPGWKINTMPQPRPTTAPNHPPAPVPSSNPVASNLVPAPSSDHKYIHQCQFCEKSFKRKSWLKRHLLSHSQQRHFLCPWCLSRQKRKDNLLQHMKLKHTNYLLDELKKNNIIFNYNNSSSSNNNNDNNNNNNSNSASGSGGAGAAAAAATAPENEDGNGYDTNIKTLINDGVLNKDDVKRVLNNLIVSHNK
As to the kind of experiment: PBM E-score (8-mer binding enrichment) (E-score (-0.5 to 0.5)); higher = stronger / more preferred TF binding; most listed sequences are background and not binding sites. Particulars: protein concentration: 200 nM; construct: GST-full length. The procedure, abridged: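 Yeast transcription factors, full-length or as DNA-binding domains, were expressed with a GST tag using PURExpress in vitro transcription/translation. At about 100-200 nM they were applied to universal all-10-mer Agilent arrays, double-stranded by primer extension on fresh or once-stripped slides. Fluorescent anti-GST detected bound protein, and masliner normalised the scans. E-scores for ungapped eight-base words, pooled with reverse complements, came from the Universal PBM Analysis Suite.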
Regarding ATAGTTCA, the “PBM E-score” value amounted to 0.0151.

Consider AATCCCGA, for which the “PBM E-score” value is -0.0874.

As to ATAATGCA, the “PBM E-score” value worked out at 0.0624.

GCCGGAAC: the “PBM E-score” value was -0.32.

In the case of CTTGCTCA, the “PBM E-score” value is -0.16.

On to ACATACAT, for which the “PBM E-score” value was determined as 0.339.

As for CGCAGCAC, the “PBM E-score” value was -0.206.

Take AGAGCATA: the “PBM E-score” value was -0.0148.

As to AATATGGG, the “PBM E-score” value is -0.176.

Take CGTGGAAA: the “PBM E-score” value turned out to be 0.0506.

Turning to ACAGCAAA, the “PBM E-score” value stood at 0.143.

Take ACGGCGCG: the “PBM E-score” value was -0.00385.

Turning to ATAGCCGC, the “PBM E-score” value was -0.244.

On to CGTCGACC, for which the “PBM E-score” value was -0.0924.

In the case of ACTCCATA, the “PBM E-score” value was -0.0826.

Consider CACCGCAG, for which the “PBM E-score” value is 0.0392.

Turning to GTAGCAAC, the “PBM E-score” value was -0.0958.

As for CACGTTGG, the “PBM E-score” value was 0.0927.

Take CGTTTAGA: the “PBM E-score” value amounted to 0.0393.

On to GAGCGCCA, for which the “PBM E-score” value is -0.362.

Take CTTACACA: the “PBM E-score” value stood at 0.3.

On to GTCACCCA, for which the “PBM E-score” value was -0.07.

On to AACAGGCA, for which the “PBM E-score” value was determined as 0.484.

Turning to CTGGAATA, the “PBM E-score” value is -0.0588.

On to GATATATC, for which the “PBM E-score” value is -0.153.

ACTGAGTA: the “PBM E-score” value came to 0.0419.

Turning to GTCCACAC, the “PBM E-score” value turned out to be 0.0444.

Turning to AACTACGC, the “PBM E-score” value amounted to 0.18.

AAGACCAG: the “PBM E-score” value was -0.0179.

For the sequence CGATTTTA, the “PBM E-score” value came to 0.0315.

As for CCGTGAAC, the “PBM E-score” value is -0.126.

For the sequence CGCGAATA, the “PBM E-score” value is 0.0877.

Turning to CAGAAATC, the “PBM E-score” value was -0.0143.

Consider CAGACGTC, for which the “PBM E-score” value was -0.141.

As for ACCCACAG, the “PBM E-score” value is -0.155.

As to ATCAAGTC, the “PBM E-score” value is -0.0213.

In the case of AGTCTCTG, the “PBM E-score” value is -0.257.

Turning to ACACACCG, the “PBM E-score” value worked out at 0.223.

As to AGAAAATC, the “PBM E-score” value is -0.0262.

For AGATCGAT, the “PBM E-score” value is -0.0453.

Regarding ACGATTTC, the “PBM E-score” value stood at 0.166.

With CAGCGGGA, the “PBM E-score” value is -0.278.

Turning to ACGATCTC, the “PBM E-score” value is -0.198.

On to ATATCGAA, for which the “PBM E-score” value was 0.0326.

Consider AAGAAAAC, for which the “PBM E-score” value is -0.0102.

As for ATACGGAC, the “PBM E-score” value was -0.112.

As to CTATGTCC, the “PBM E-score” value is -0.0601.

For the sequence CCTGGTTC, the “PBM E-score” value was found to be 0.049.

Regarding AAGGTTCT, the “PBM E-score” value was 0.127.

Regarding AGAAGCAT, the “PBM E-score” value was -0.0427.

For the sequence CGTAATGC, the “PBM E-score” value came to 0.201.

For the sequence TCAAGAAA, the “PBM E-score” value amounted to 0.102.

On to AATACCTA, for which the “PBM E-score” value was 0.22.

Take CACCAAGG: the “PBM E-score” value was -0.00468.

GAGAAAAA: the “PBM E-score” value stood at 0.07.

TCCGGTAA: the “PBM E-score” value is 0.138.

Turning to ATTCGATA, the “PBM E-score” value was determined as 0.0323.

Consider CAAGACGC, for which the “PBM E-score” value was -0.082.

For GGAAAAAA, the “PBM E-score” value worked out at 0.144.

As for ATGCTACC, the “PBM E-score” value was -0.133.

AAAGCGAT: the “PBM E-score” value amounted to 0.07.

On to CGCTACAG, for which the “PBM E-score” value was -0.141.

On to GCAGGTAC, for which the “PBM E-score” value came to 0.452.

For the sequence ACCATGGG, the “PBM E-score” value was -0.316.

With GTATACTA, the “PBM E-score” value worked out at 0.0853.

In the case of CCCATGGG, the “PBM E-score” value is -0.0565.

Regarding AGGAAAAA, the “PBM E-score” value was 0.352.

For the sequence GCCGCAAA, the “PBM E-score” value was -0.22.

Turning to TATTAGAA, the “PBM E-score” value stood at 0.148.

For ACCCTAAA, the “PBM E-score” value is -0.118.

As for GCATGTAC, the “PBM E-score” value was found to be 0.321.

In the case of CTCGTAAG, the “PBM E-score” value was determined as 0.047.

With CATAGCAA, the “PBM E-score” value was 0.0672.

As for GGTGAGCA, the “PBM E-score” value is -0.152.

Regarding CACTTCTC, the “PBM E-score” value was -0.162.

Turning to ATTGCGAC, the “PBM E-score” value came to 0.137.

Turning to CCTTACTC, the “PBM E-score” value was 0.064.

Turning to GCGGTGGA, the “PBM E-score” value was -0.0759.

In the case of AGGCGGAT, the “PBM E-score” value was -0.0835.

AGCTTATC: the “PBM E-score” value is -0.286.

Regarding CGAGTGCA, the “PBM E-score” value is 0.114.

On to CTCCCGAG, for which the “PBM E-score” value is -0.343.

In the case of CGGCTGAG, the “PBM E-score” value was -0.368.

Consider CAGTAAAC, for which the “PBM E-score” value came to 0.00975.

Take ACGTTAGC: the “PBM E-score” value is 0.0573.

As for ATGTACTG, the “PBM E-score” value came to 0.295.

Consider CCTAGGCA, for which the “PBM E-score” value was found to be 0.459.

With ACAACGAC, the “PBM E-score” value was 0.0106.

For the sequence GAGGCCTC, the “PBM E-score” value is -0.239.

Consider ATTAATAC, for which the “PBM E-score” value is 0.21.

As to ACGGCTCC, the “PBM E-score” value was -0.0289.

As for CTCAGGTA, the “PBM E-score” value worked out at 0.226.

Take TGTTAAAA: the “PBM E-score” value stood at 0.343.

Regarding CCTGAAGC, the “PBM E-score” value is -0.0867.
